According to the supplement of paper PMC4466236:
The full ranking holds about 33,000 sequences; the median of “E-score (dimensionless, -0.5 to 0.5)” is about -0.058, and the highest 2% start at about 0.35. Some of the results follow.

What follows are sequences tested on MvaT (assay: PBM 8-mer E-score (mean of HK and ME arrays) (E-score (dimensionless, -0.5 to 0.5)); higher = stronger relative binding preference; most listed sequences are background and not binding sites).
Summary of the method: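 Full-length P. aeruginosa MvaT, with glutathione S-transferase fused to its N-terminus (cloned into pTH6838 by isothermal assembly), was tested by protein binding microarray using a previously described protocol. Two universal double-stranded 60-mer arrays (ME and HK) were used, each with a constant 25-mer primer region and a variable 35-mer region covering all 8-mers. The rank-based 8-mer E-score (-0.5 to 0.5) is the mean of the two arrays, parsed with a custom Python script.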

Sequence | PBM 8-mer E-score
ACTCAATC | 0.0599
TAGTTAGA | 0.178
AGTTGCAC | 0.0703
ATGTTAGC | 0.069
ACGTTCGC | -0.187
AGAACGGC | -0.166
CCATGAAC | -0.0875
TATGGACA | 0.0866
ACTGGCTC | -0.0916
AATCAACG | -0.0388
GGTACACA | -0.0929
CACAGATG | -0.0775
CTAGGTTC | -0.048
CGTGCGGA | -0.146
AATCCGTG | -0.11
CAGGAGAA | -0.0765
ACATTCTC | -0.00911
ACCCAGAC | -0.0473
ACACCGCG | -0.108
CCTGTGAG | -0.0976
CCTTATCA | 0.0843
GAACCGGC | -0.208
AATCGGCT | -0.105
GCCCATCC | -0.103
TACTAACA | 0.301

Sequence | PBM 8-mer E-score
CGGCGGCC | -0.272
CATTGTGC | -0.088
CAGGGCAG | -0.325
AGTATTCG | 0.00317
CAAAGTTC | 0.278
CTTATTAA | 0.362
AATTCTAA | 0.318
CTTGTTGA | 0.0529
ACATTGCT | -0.0355
TGGGGAAA | 0.0333
CGGTCCTA | -0.157
CCTAAATC | -0.0235
CATAAAAA | 0.179
GGATTCAA | -0.000816
CAGCATAA | 0.103
AAACATCG | 0.105
AACACCTT | 0.0796
TAGCCACA | -0.044
TCTTCCAA | -0.0144
GACGAGGC | -0.217
GAATACTA | 0.212
ATAGGTTA | 0.0408
GACGTTCC | -0.252
AGTAGACT | 0.122
GCATATTA | 0.278

Sequence | PBM 8-mer E-score
GCGTTTCC | -0.151
AGTCGTAG | -0.223
CAACGCTC | -0.268
CAGAGGAG | -0.252
CCTTGGCC | -0.19
CCTTTCAC | -0.133
ATTGGCCG | -0.0502
TACAGGAA | 0.025
CTACCTTA | 0.103
ATGATTCG | 0.0176
GAGTTCTA | 0.059
AGCGTGAT | -2.7e-05
GTACGTCA | -0.1
CAGACGCC | -0.25
AGGCGAAG | -0.0545
CCGCCCAA | -0.00322
ATTTGCAG | 0.119
GCGTTCCA | -0.0496
AGAACCAG | -0.201
GGTTCAAA | -0.0223
ATTAAGTG | 0.345
CGCACCAG | -0.147
CGTATCCC | -0.0821
CAGGAATC | -0.2
TATAATGA | 0.373

Sequence | PBM 8-mer E-score
ATTTCATC | 0.0474
GCGCGGGA | -0.253
GCGCCACC | -0.15
ATCTGTGG | -0.104
GCAGCAGA | -0.184
GCGTTACA | 0.0339
GAAAAAGA | 0.11
GCAAAAAA | 0.209
ATTCCGGA | 0.138
GTTTTCTA | 0.0431
ATAATCCG | 0.228
GCCCTGTA | -0.11
AGTACTTC | 0.178
CTGAGGGC | -0.218
ATAAATAT | 0.44
CGGTATCC | -0.219
ACCACACT | 0.00724
TTACCCAA | 0.121
CGTGTAAC | -0.0971
ATCCCTCC | -0.246
TAGCTTGA | 0.068
TAGTGCGA | 0.178
CCCTCGCG | -0.291
GACGAAGA | -0.134
ATAATTGA | 0.338

Sequence | PBM 8-mer E-score
GAGATTAC | 0.135
CGCACGGA | -0.204
TCGCACCA | -0.145
GCGGCCAC | -0.244
CGGTCGCC | -0.265
CTACACCC | -0.0475
CGACCGTC | -0.199
ACAACCGA | 0.0543
ATTATGCC | 0.219
CAGACATG | -0.187
AGCTACCC | -0.217
AAACCTCG | 0.0214
ACAGTCCT | 0.0332
ATCCTCAC | -0.146
ATTGAAGA | 0.139
AATTCACT | 0.0569
AGCGCGCG | -0.184
GCTCGCTA | -0.0743
AGTACCAT | -0.000649
AGTGAGAA | -0.0424
TGGAATAA | 0.312
ATAGGAGG | -0.217
TAATACTA | 0.37
ACTGACTG | -0.0633
CCTAATGC | -0.142

Sequence | PBM 8-mer E-score
ACGGAGCC | -0.0764
AGGCGTAC | -0.147
AACGGACA | -0.037
CTGATAAC | 0.136
ATCTAAAA | 0.233
ACCCGAAT | 0.059
AATTTTTC | 0.14
CGCACTCC | -0.32
CGTTCGCC | -0.251
CAGGGGAA | -0.161
GAACCGCC | -0.207
TCCCCGGA | -0.26
CTAGTTTC | 0.0423
CGTAAGGC | -0.053
TCCTCGAA | -0.00625
GAAAATTC | 0.0774
GACTTAGC | -0.145
ACTTGTAG | 0.105
ACCTCGGC | -0.225
ACAGTGCC | -0.02
CACAATCA | 0.0803
GGATACAC | -0.0125
AGACGCAT | -0.0791
CCATAAAG | -0.0677
ATCTTGCC | 0.0286

Sequence | PBM 8-mer E-score
ATCCGCAC | -0.144
AAACTGAT | 0.145
GCTAACAA | 0.0687
GGCGTGCA | -0.107
AAGTCTTA | 0.253
GTAACAAC | 0.198
AACCAGTA | -0.00423
GTGCATGA | -0.0301
ACCATAGA | -0.0175
CTCATCGC | -0.123
CGTCGATC | -0.238
CTAACAAA | 0.255
TACACACA | 0.153
GCCGTCTA | -0.085
CATGTTGA | 0.0607
GCATAGTA | 0.14
AAGACGTG | -0.235
AGATTGAT | -0.0181
ATCCCTTA | -0.0281
TCTTCAAA | 0.166
CCATGCTA | -0.155
ATCTGTCG | -0.0673
AGGCACGG | -0.223
CACACCTG | -0.143
ATAATGAG | 0.313

Sequence | PBM 8-mer E-score
GCCTACCA | -0.174
CTCAGTTC | -0.229
GCGACATA | -0.0623
AGGGTACC | -0.343
ATGATCGA | 0.0867
ACGGATCC | -0.241
CAATGTGC | -0.0728
GATATGCA | 0.0935
AATTCACC | 0.113
GATATCCC | -0.0645
AAGATGGC | -0.0248
GACGTTAC | 0.0636
GTCTGGAA | -0.164
AAGGAGCG | -0.181
AGTAGAAA | 0.0666
CGATGTTA | 0.174
CCTGTGCG | -0.126
CAACTTAA | 0.31
CGGGGAAA | 0.104
TGCCATAA | 0.0258
GAAGTAAC | 0.178
CACTTACC | -0.106
GTGTGATA | 0.0906
AGGTTTAT | 0.142
TACCCTAA | 0.0529

Sequence | PBM 8-mer E-score
GTGCAACA | -0.096
CCGCAGAA | -0.0417
ATGACCCG | -0.0983
GCATACGA | 0.0206
AAGCGTGC | -0.254
TCTTTGCA | 0.0664
CATGTAGC | 0.134
CGTTTTCC | 0.027
GCCACCAC | 0.00975
CTCAACCC | -0.11
CACTTGCC | -0.194
CATGACCC | -0.0432
CTCAGGTC | -0.165
GGAACAGA | -0.0246
CTGCCTAA | -0.0257
ATTTATGG | 0.204
ACTTGGCA | -0.0156
CGTAGCAG | -0.106
GGACTTCA | 0.0589
